Reference: PubChem BioAssay AID602179 (National Center for Advancing Translational Sciences (NCATS), 2012)
In all, about 390,000 compounds went through this assay and about 360 (0.092%) were called active. Inconclusive results, whose numbers are uncertain, are shown with a selection of clear calls. The call rests on the fitted dose curve; in most records, active means well fitted inhibition curve with a large enough effect; inconclusive means small, poorly fitted or top-dose-only effect; inactive means no such curve, though single readings can be large or run the other way. A potency beside an inconclusive call is a rough fit, not a confirmed value.

Biological target: Isocitrate dehydrogenase [NADP] cytoplasmic (Homo sapiens) (UniProt O75874)
Assay: qHTS for Inhibitors of mutant isocitrate dehydrogenase 1 (IDH1): qHTS; further: nearly all actives have a fitted effect of over 65% in size
Details: IDH1-R132H enzyme, NADPH consumption, diaphorase/resazurin fluorescence; series mostly up to 76.6 µM
In short: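 IDH1-R132H (0.5 ug/mL dispensed) in pH 7.5 Tris buffer was preincubated 30 min with compound, then given a substrate mix of 0.016 mM NADPH and 2 mM alpha-KG for 80 min at room temperature; remaining NADPH was read by diaphorase/resazurin fluorescence.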
Potency means the concentration at half of the fitted maximal effect; tags describe the fitted curve by direction and shape.

SMILES	Potency
CCOC(=O)c1c(NC(=O)/C=C/C(=O)O)sc(C)c1-c1ccc(F)cc1	inconclusive: 50.1 µM [inhibitor, single point]
COc1cc(C(c2c(C(=O)O)[nH]c3ccccc23)c2c(C(=O)O)[nH]c3ccccc23)ccc1OCc1ccccc1	inconclusive: 58.5 µM [inhibitor, partial curve, poor fit]
CC(C)=CCC12Oc3cc(O)ccc3C1(O)Oc1cc(O)c([C@H]3C=C(C)CC(c4ccc(O)cc4O)[C@H]3C(=O)c3ccc(O)cc3O)c(O)c1C2=O (stereo not given in full)	inconclusive: 35.5 µM [inhibitor, partial curve]
COc1ccc(NC(=O)c2c([N+](=O)[O-])c(C(C)(C)C)nn2C)cc1	inactive
CC1Cc2nc(SCC(=O)NCC3CCCO3)n(-c3ccccc3)c(=O)c2S1 (stereo not given)	inactive
Cc1cc(C)cc(N(C(=O)CCC(=O)Nc2cc(C)on2)C(C(=O)NC2CCCC2)c2ccco2)c1 (stereo not given)	inconclusive: 26.1 µM [inhibitor, single point]
COc1ccc2[nH]c3c(C)c4ccncc4c(C)c3c2c1	inactive
Cc1ccc2[nH]c(=O)c(CN(C)C(=O)c3cccs3)cc2c1	inconclusive: 44.7 µM [inhibitor, single point]
Cc1ccc(NS(=O)(=O)c2ccc(Cl)c(C(=O)Nc3ccccc3-c3nc4ccccc4[nH]3)c2)cc1C	inactive
O=C1Nc2ccc(Cl)cc2C(=O)C1(F)c1ccccc1 (stereo not given)	inactive
O=C(O)c1ccccc1/C=N/Nc1ccc(S(=O)(=O)Nc2ccc(Cl)cc2)cc1[N+](=O)[O-]	inconclusive: 58.5 µM [inhibitor, single point]
C[n+]1c2n(c3ccccc31)N=C(c1cc(C(C)(C)C)c(O)c(C(C)(C)C)c1)CS2	inactive
O=C(CCCOc1ccc(Cl)cc1Cl)n1nnc2ccccc21	inactive
O=C(O)c1cc(S(=O)(=O)N2CC=C(c3ccccc3)CC2)ccc1O	inconclusive: 58.5 µM [inhibitor, single point]
O=C(CCN1C(=O)/C(=C\C=C\c2ccccc2)SC1=S)Nc1ccccc1C(=O)O	inconclusive: 58.5 µM [inhibitor, partial curve, poor fit]
Cn1cnc2c1c(=O)n(Cc1ccc(Cl)cc1Cl)c(=O)n2C	inactive
Cc1ccccc1OCc1nnc(SCc2cc(=O)[nH]c3ccccc23)n1-c1ccccc1	inconclusive: 58.5 µM [inhibitor, single point]
O=C(O)CCN1C(=O)/C(=C2\C(=O)N(Cc3ccc(F)cc3)c3ccccc32)SC1=S	active: 9.27 µM
CCc1nnc(NC(=O)c2nc(S(=O)(=O)Cc3ccc(C)cc3)ncc2Cl)s1	inactive
Cc1cccc(C)c1Nc1c(-c2ccccc2F)nc2cccc(C)n12	inconclusive: 12.6 µM [inhibitor, full curve, poor fit]
C/C(=N\NC(N)=S)c1cc(-c2ccccc2)c(-c2ccccc2)s1	inconclusive: 13.1 µM [inhibitor, full curve]
CCOC(=O)C1CCN(C(=O)Nc2ccc3oc(C)nc3c2)CC1	inactive

SMILES	Potency
CCOC(=O)c1c(CSC(=N)N)n(-c2ccccc2)c2cc(Br)c(OC(C)=O)cc12	inconclusive: 52.1 µM [inhibitor, partial curve, poor fit]
COc1ccccc1N1CCN(C(=O)c2ccc3c(=O)n4c(nc3c2)CCCCC4)CC1	inactive
O=C(CCS(=O)(=O)c1nc(-c2cccs2)cc(C(F)(F)F)n1)Nc1ccc(OC(F)(F)F)cc1	inconclusive: 50.1 µM [inhibitor, single point]
S=C(Nc1cccc2ccccc12)NC1CCCCC1	inconclusive: 7.36 µM [inhibitor, partial curve, poor fit]
Cc1cccc(C(=O)Nc2sc3c(c2C(=O)N2CCCCC2)CCC(C)C3)c1 (stereo not given)	inconclusive: 50.1 µM [inhibitor, single point]
Cc1nc([N+](=O)[O-])c(Br)n1CC(=O)c1ccc2ccccc2c1	inconclusive: 16.5 µM [inhibitor, full curve]
COc1cccc(C2=C(C(C)=O)Sc3nncn3N2C(C)=O)c1	inconclusive: 44.7 µM [inhibitor, partial curve, poor fit]
COc1cccc(Cn2cc(/C=N/NC(=O)c3cc(O)cc(O)c3)c3ccccc32)c1	inconclusive: 58.5 µM [inhibitor, single point]
Cc1ccc(C(C(=O)NC2CCCCC2)N(C(=O)Cc2c[nH]c3ccccc23)c2ccccc2C)o1 (stereo not given)	inconclusive: 36.9 µM [inhibitor, partial curve]
C=CS(=O)(=O)c1sc(Cl)c(N2CCOCC2)c1[N+](=O)[O-]	inconclusive: 26.1 µM [inhibitor, single point]
O=C(NC1CCCCC1)C(c1ccccc1F)N(Cc1ccco1)C(=O)Cn1nnc2ccccc21 (stereo not given)	inconclusive: 13.1 µM [inhibitor, full curve]
O=C(CCl)c1ccc2c(c1)CCN2C(=O)C1CCCCC1	inconclusive: 18.5 µM [inhibitor, single point]
CN(C)c1ccc(/C=C2/C[N+](C)(C)C/C(=C/c3ccc(N(C)C)cc3)C2=O)cc1	inactive
CN(CCCNC(=O)C1CCCN(S(=O)(=O)c2cnc[nH]2)C1)c1ccccc1 (stereo not given)	inactive
O=C(NC1CCCCC1)C(c1ccc(Cl)cc1)N(C(=O)c1cnccn1)c1ccc2c(c1)OCO2 (stereo not given)	inconclusive: 26.1 µM [inhibitor, single point]
CCCc1ccc(S(=O)(=O)Nc2ccc(C)c(NS(C)(=O)=O)c2)cc1	inactive
O=c1c2ccccc2nc(/C=C/c2cccnc2)n1CCc1ccccc1	active: 52.1 µM
Cc1ccc(-c2nc3sccn3c2Nc2ccc(C)c(C)c2)cc1	inconclusive: 50.1 µM [inhibitor, single point]
CC1(C)CC2(CC(c3cccs3)c3cc(Cl)c(O)cc3O2)NC(=S)N1 (stereo not given)	inconclusive: 58.5 µM [inhibitor, single point]
CSc1nn(Cc2ccc(C)cc2)c(N)c1S(=O)(=O)c1ccccc1	active: 31.6 µM
COc1cc(SC#N)ccc1N=Cc1c(C)[nH]n(-c2ccc(C)c(C)c2)c1=O	inconclusive: 52.1 µM [inhibitor, single point]
COC(=O)c1ccc(-n2nnnc2SCC(=O)Nc2cc(OC)ccc2OC)cc1	inactive

SMILES	Potency
O=[N+]([O-])c1cc(Cl)cc(/C=N/NC(=S)Nc2cc(S(=O)(=O)N3CCOCC3)ccc2Cl)c1O	inconclusive: 58.5 µM [inhibitor, single point]
CCc1cc(C(=O)c2ccc(OC)cc2)c(NC(=O)CN2CCCC2)s1	active: 46.5 µM
COc1c(CC=C(C)C)c(O)cc2oc(=O)c3c4ccc(O)cc4oc3c12	inconclusive: 50.1 µM [inhibitor, partial curve, poor fit]
CC1=C(C#N)C(=O)NC(=O)/C1=C\c1ccc(-c2cc(C)c(C)cc2[N+](=O)[O-])o1	inconclusive: 70.8 µM [inhibitor, single point]
CCCCNc1c(-c2cccc(-c3ccc(OC)cc3)c2)nc2ccc(C)cn12	inconclusive: 12.6 µM [inhibitor, single point]
Cc1noc(NS(=O)(=O)c2ccc(NC(=O)c3cc(-c4ccccc4Cl)nc4ccccc34)cc2)c1C	inconclusive: 58.5 µM [inhibitor, single point]
Cc1ccc(NC(=O)CN(Cc2ccccc2)S(=O)(=O)c2ccc3nc(C)sc3c2)c(C)c1	inactive
O=C(Nc1ccc(S(=O)(=O)N2CCOCC2)cc1)c1ccc2c(c1)S(=O)(=O)c1ccccc1C2=O	inconclusive: 8.91 µM [inhibitor, full curve]
O=S(=O)(NCCc1nnc2ccc(SCc3ccccc3Cl)nn12)c1ccccc1	inconclusive: 44.7 µM [inhibitor, single point]
Clc1ccc(C(Cn2ccnc2)OCc2c(Cl)cccc2Cl)c(Cl)c1 (stereo not given)	inconclusive: 44.7 µM [inhibitor, single point]
CCOC(=O)CNC(=O)N1CCN(S(=O)(=O)c2ccc3c(ccn3C)c2)CC1	inconclusive: 63.1 µM [inhibitor, single point]
COc1ccc(Oc2nc3c(C)cccn3c(=O)c2/C=C(\C#N)C(N)=O)cc1	inconclusive: 52.1 µM [inhibitor, single point]
COc1cccc(C(=O)c2c(-c3ccccc3)ncc3cc(OC)c(OC)cc23)c1	inconclusive: 44.7 µM [inhibitor, partial curve, poor fit]
COc1ccc2cc3cc(C(=O)Nc4ccc5c(c4)OCCO5)oc3nc2c1	inactive
Nc1c(S(=O)(=O)O)cc(NC(=O)c2ccccc2)c2c1C(=O)c1ccccc1C2=O	inconclusive: 23.3 µM [inhibitor, full curve]
Cc1ccc2nc(-c3cccs3)c(Nc3c(C)cccc3C)n2c1	inconclusive: 35.5 µM [inhibitor, partial curve, poor fit]
Cc1c(NC(=O)C(=O)/C=C(/O)c2ccccc2)c(=O)n(-c2ccccc2)n1C	inactive
Cc1cccc2cc(CN(Cc3nnnn3C3CCCCC3)C3CCCC3)c3nnnn3c12	inactive
Cc1cc(NC(=O)c2ccccc2)c(Cl)cc1N	inactive
CCC(C)Nc1nc(N)c([N+](=O)[O-])c(Nc2cc(OC)ccc2OC)n1 (stereo not given)	inconclusive: 46.5 µM [inhibitor, partial curve]
CCCCCSc1nc2sc3c(c2c(=O)n1-c1ccccc1)CCN(C(C)=O)C3	inconclusive: 50.1 µM [inhibitor, single point]
